Measured values published in PubChem BioAssay AID686979 (National Center for Advancing Translational Sciences (NCATS), 2013).
Out of some 420,000 compounds screened, about 50,000 (12%) were called active. Inconclusive means that the source gave no clear call. Such entries were picked first, then a sample of the others. The call rests on the fitted dose curve; in most records, active means well fitted inhibition curve with a large enough effect; inconclusive means small, poorly fitted or top-dose-only effect; inactive means flat fitted curve, though single readings scatter. Potencies of inconclusive entries are left out as doubtful fits.
On the % scale 0 is the no-effect control and ±100 the full control effect; potency means the concentration at half of the fitted maximal effect; tags describe the fitted curve by direction and shape.

Assay: qHTS for Inhibitors of human tyrosyl-DNA phosphodiesterase 1 (TDP1): qHTS in cells in presence of CPT; further: nearly all actives have a fitted effect of over 55% in size
Settings: chicken DT40 Tdp1-/-;hTDP1 cells + 20 nM CPT, ATP luminescence, 48 h; activity change, negative = growth inhibition: at 46.2 µM (top of the series) unless noted
Method in brief: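 Chicken DT40 Tdp1-/- cells complemented with human TDP1, 400 cells/well, exposed to compounds plus 20 nM camptothecin for at least 48 h at 37 C; viability read as ATP content by CellTiter-Glo luminescence.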
With `O=C(c1cc(-c2cccnc2)nc2ccccc12)N1CCN(S(=O)(=O)c2ccc(Cl)s2)CC1` the Potency was inconclusive [inhibitor, single point].
For `O=C(NCCc1ccc(Cl)cc1)c1ccc(CS(=O)Cc2ccc(Cl)cc2)o1` (stereo not drawn), the Potency was inconclusive [inhibitor, single point].
With `O=C(c1ccc(Cl)c(Cl)c1)N1CCC(=O)N(C(CO)Cc2ccccc2)CC1` (stereo not drawn) the Potency was inconclusive [inhibitor, single point].
In the case of `CC(=O)Nc1ccc(C2=NN(C)C(=NCc3ccccc3)SC2)cc1`, the Potency is reported as inconclusive [inhibitor, single point].
For `CCCCCCCCN1C(=O)[C@H](CC(=O)N2CCCC2)C[C@@]2(C(=O)OCC)CCCC=C12`, the Potency was active: 8.2 µM.
With `CCOC(=O)c1[nH]c(C)c(C(=O)Nc2ccc(F)cc2)c1C` the Potency was “inactive”.
In the case of `Cc1cc(Cl)c2oc(C(=O)N(C)CC3CCOCC3)c(C)c2c1`, the Potency is reported as inconclusive [inhibitor, single point].
With `Cc1cc(C(=O)OCC(=O)c2ccc(Br)s2)no1` the Potency was inconclusive [inhibitor, full curve, poor fit].
In the case of `CCc1ccc(Nc2nc3c(S(=O)(=O)c4cccc(Cl)c4)nnn3c3ccsc23)cc1`, the Potency is reported as active: 6.51 µM.
For `[O-]/C(=C(\C(=S)Nc1ccc(SC(F)F)cc1)[n+]1cccc(CO)c1)c1ccc(Cl)s1`, the Potency was inconclusive [inhibitor, single point].
In the case of `O=c1c2ccccc2c(/C=N/c2n[nH]c(CCCO)n2)c(O)n1-c1ccccc1Cl`, the activity change, negative = growth inhibition is reported as inconclusive: -30.3% [inhibitor].
With `N#Cc1ccc(/C=N/NC(=O)CCc2ccc(S(=O)(=O)N3CCOCC3)cc2)cc1` the Potency was “inactive”.
In the case of `COc1ccc(CCN2C(=O)CC(Nc3ccc(N4CCOCC4)cc3)C2=O)cc1OC` (stereo not drawn), the Potency is reported as “inactive”.
For `O=C(c1ccccc1)c1ccc(OCCCCN2CCCCC2)cc1`, the Potency was “inactive”.
For `Cc1ccc(C(=O)OCC(=O)N2c3ccccc3NC(=O)C2(C)C)cc1S(=O)(=O)N1CCCCC1`, the Potency was inconclusive [inhibitor, single point].
For `CC(=O)N1N=C(c2cccc(Cl)c2)OC1c1cccc([N+](=O)[O-])c1` (stereo not drawn), the Potency was inconclusive [inhibitor, single point].
In the case of `CCCCn1nnnc1C(c1cc2ccccc2o1)N1CCN(c2c(C)cccc2C)CC1` (stereo not drawn), the Potency is reported as inconclusive [inhibitor, single point].
In the case of `Cc1cc(-n2c(SCc3ccccc3F)nc3n[nH]c(C)c3c2=N)ccc1Cl`, the Potency is reported as inconclusive [inhibitor, single point].
